In PubChem BioAssay AID686979 (National Center for Advancing Translational Sciences (NCATS), 2013):
“And” between values parts separate entries of the source, which are not always exact repeats. Equal values may be shown once. Out of some 420,000 compounds screened, about 50,000 (12%) were called active. The inconclusive results got no clear call from the source; some entries with a clear call stand among them for comparison. Calls come from the whole dose curve; as a rule, active = well fitted inhibition curve with a large enough effect; inconclusive = small, poorly fitted or top-dose-only effect; inactive = flat fitted curve, though single readings scatter. Potencies of inconclusive entries are left out as doubtful fits.

assay: qHTS for Inhibitors of human tyrosyl-DNA phosphodiesterase 1 (TDP1): qHTS in cells in presence of CPT; settings: chicken DT40 Tdp1-/-;hTDP1 cells + 20 nM CPT, ATP luminescence, 48 h; activity change, negative = growth inhibition: at 46.2 µM (top of the series) unless noted; note: nearly all actives have a fitted effect of over 55% in size
Procedure, shortened: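 Chicken DT40 Tdp1-/- cells complemented with human TDP1, 400 cells/well, exposed to compounds plus 20 nM camptothecin for at least 48 h at 37 C; viability read as ATP content by CellTiter-Glo luminescence.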
% is set by controls: 0 for no effect and ±100 for the full control effect; potency is the fitted concentration of half-maximal effect; tags give direction and shape of the fitted curve.

Row | Structure (SMILES) | Potency | activity change, negative = growth inhibition
1 | O=C(O)CCCNC(=O)CCCNC(=O)C(c1ccccc1)c1ccccc1 | inactive | –
2 | Cc1cc(NC(=O)CSCC(=O)OCc2nnc(-c3ccc(F)cc3)o2)no1 | inactive | –
3 | CCN(c1ccccc1)S(=O)(=O)c1ccc(C(=O)N2CCN(c3ccccc3)CC2)cc1 | inconclusive [inhibitor, single point] | –
4 | C=CCn1c(N)c(C(=O)NCC2CCCO2)c2nc3ccccc3nc21 (configuration not stated) | inconclusive [inhibitor, partial curve, poor fit] | –
5 | CC1CCN(c2c(NCC3CCC(C(=O)NCCC4=CCCCC4)CC3)c(=O)c2=O)CC1 (configuration not stated) | active: 18.4 µM | –
6 | O=C(CN(c1ccc2c(c1)OCCO2)S(=O)(=O)c1ccccc1)NCc1ccc(Cl)cc1 | inconclusive [inhibitor, single point] | –
7 | O=C(COC(=O)c1cnccn1)Nc1ccc(Cl)cc1C(F)(F)F | inactive | –
8 | CO/N=C1\CCCc2c(C(=O)NN)sc(SC)c21 | inconclusive [inhibitor, single point] | –
9 | CSc1ccccc1NC(=O)c1ccccc1 | inactive | –
10 | Cn1cc(NC(=O)OCc2ccc(Cl)cc2)c(C(F)(F)F)n1 | inconclusive [inhibitor, single point] | –
11 | Nc1[nH]c(=S)[nH]c(=O)c1N | inactive | –
12 | CCc1cccc(OCCCCNCCCOC)c1 | inactive | –
13 | O=C(NCc1cccs1)c1ccc2c(c1)sc1nc(-c3ccccc3)cn12 | active: 18.4 µM | –
14 | CC(C)c1ccc(-c2noc(SCC(=O)N3CCN(c4ccccc4F)CC3)n2)cc1 | active: 23.1 µM | –
15 | COC(=O)/C=C1\OC(C2CC2)c2ccccc21 (configuration not stated) | active: 8.2 µM | –
16 | CN1CCN(S(=O)(=O)c2ccc(NC(=S)NC(=O)c3ccc(Cl)cc3)cc2)CC1 | inconclusive [inhibitor, partial curve, poor fit] | –
17 | Cc1ccc(C(=O)N2CC(C)OC(C)C2)cc1S(=O)(=O)N1CCCCC1 (configuration not stated) | inconclusive [inhibitor, single point] | –
18 | CCS(=O)(=O)N1Cc2ccccc2CC1C(=O)N1CCN(c2ccccc2)CC1 (configuration not stated) | inactive | –
19 | COc1cc(-c2noc(C)c2/C=C/c2ccc(OC(C)=O)cc2)cc(OC)c1OC | active: 25.1 nM and active: 731 nM | –
20 | O=C1/C(=C/N(C(=O)c2ccco2)c2ccc(Br)cc2)Sc2ccccc21 | inconclusive [inhibitor, single point] | –
21 | CCc1nccn1C(=O)c1cnn2c(C(F)F)cc(-c3ccc(C)cc3)nc12 | active: 20.6 µM | –
22 | CC(C)(C)c1ccc(Cn2ccc(-c3ccc4c(c3)OCO4)n2)cc1 | inconclusive [inhibitor, single point] | –
23 | CC(=O)N(Cc1ccc(F)cc1)Cc1nc2ccccc2c(=O)[nH]1 | inconclusive [inhibitor, single point] | –
24 | NNC(=O)Cn1c(-c2ccccc2)cc(=O)n2ncnc12 | inactive | –

Row | Structure (SMILES) | Potency | activity change, negative = growth inhibition
25 | Cc1ccc(S(=O)(=O)N2CCC(C(=O)N3CCc4ccccc43)CC2)cc1C | inconclusive [inhibitor, partial curve] | –
26 | COc1cc(CN(C(=O)c2ccccc2)c2ccccn2)cc(OC)c1OC | inconclusive [inhibitor, partial curve] | –
27 | O=C(Nc1ccc2ccccc2n1)c1ccccc1Cl | inconclusive [inhibitor, partial curve] | –
28 | O=C(NCC[C@@H]1C[C@@H]2C=C[C@H]1C2)c1cc(COc2ccc(F)cc2F)on1 | inconclusive [inhibitor, partial curve, poor fit] | –
29 | CCCCNC(=S)Nc1ccc([N+](=O)[O-])cc1 | inconclusive [inhibitor, single point] | –
30 | CCCOc1ccc(C2C(=O)N(C3CCCCCC3)CC(=O)N2C(C)C)cc1OC (configuration not stated) | inconclusive [inhibitor, single point] | –
31 | O=C(NCCc1ccc(Cl)cc1)C1CC(=O)N(C2CCCCC2)C1 (configuration not stated) | inactive | –
32 | CCN(CCCNC(=O)CNC(=O)c1nn(-c2ccc(OC)c(OC)c2)c(=O)c2ccccc12)c1ccccc1 | inconclusive [inhibitor, single point] | –
33 | CCc1ccc(N2CC(C(=O)Nc3cc(C)ccc3F)CC2=O)cc1 (configuration not stated) | inconclusive [inhibitor, single point] | –
34 | NC(=O)COn1c(SCC(N)=O)nc2ccccc2c1=O | inactive | –
35 | O=C(Nc1ccc(Cl)cc1)N1CCCC1 | – | inconclusive: -34% [inhibitor]
36 | COc1cc(C(=O)N(C)CCOc2ccccc2)ccc1OCC(=O)Nc1cccc(C(F)(F)F)c1 | active: 25.9 µM | –
37 | Cc1cc2c(cc1C)C(=O)C(Br)=C(N)C2=O | active: 25.9 µM | –
38 | COc1ccccc1-n1c(SCC(N)=O)nnc1-c1ccc(S(=O)(=O)N2CCCCC2)cc1 | inconclusive [inhibitor, single point] | –
39 | COc1ccc2c(c1)c(=O)c(C(=O)c1ccc(F)cc1)cn2CC(=O)Nc1ccc2c(c1)OCCO2 | inconclusive [inhibitor, single point] | –
40 | COc1ccccc1CNC(=O)[C@H](C)NC(=O)C1CCN(C(=O)[C@@H](N)C(C)C)CC1 | inactive | –
41 | O=C(NC(=S)Nc1ccccc1N1CCCCC1)c1ccco1 | active: 14.6 µM | –
42 | CC(=O)N1CCC(N(CCCOC(C)C)S(=O)(=O)c2ccc([N+](=O)[O-])cc2)CC1 | inactive | –
43 | CN(C(=O)COc1ccccc1)c1nnc(C23CC4CC(CC(C4)C2)C3)s1 | inconclusive [inhibitor, single point] | –
44 | O=C(NCc1cccs1)C1CC(=O)N(c2ccccc2)C1 (configuration not stated) | inactive | –
45 | COc1cc(N)c2ncccc2c1Cl | – | inconclusive: -34.1% [inhibitor]
46 | CS(=O)(=O)c1ccccc1-c1nnc(NC(=O)COc2ccc(Cl)cc2)o1 | – | inconclusive: -29.4% [inhibitor]
47 | COc1ccc(NC(=O)C2CCCN(S(=O)(=O)c3cccc4cccnc34)C2)cc1 (configuration not stated) | inconclusive [inhibitor, single point] | –
